# In paper PMC9911399, “Two distinct binding modes provide the RNA-binding protein RbFox with extraordinary sequence specificity”:
# Numbering of substitutions follows the chain as printed; changes in the protein carry UniProt numbers. The list shows a part of the results.
# T1: RBFOX1 RRM (Homo sapiens, UniProt Q9NWB1 109-208)
# T1 sequence: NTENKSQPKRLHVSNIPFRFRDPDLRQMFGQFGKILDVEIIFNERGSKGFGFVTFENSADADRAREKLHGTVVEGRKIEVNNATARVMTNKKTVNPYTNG
# B1: AGGAUGU (DNA:RNA)
# RNA: GGGAGACCGGAAUUCAGAUUGUCCAGGAUGUUUAAAUCCCGUCGUAGCCACCA
# DNA 1: CAATCTGAATTCCGGTCTCCC
# DNA 2: TGGTGGCTACGACGGGATT
# B2: AGUGCAG (DNA:RNA)
# RNA: B1 RNA with G27U, A28G, U29C, G30A, U31G
# DNA 1: CAATCTGAATTCCGGTCTCCC
# DNA 2: TGGTGGCTACGACGGGATT
# B3: GGUCAGC (DNA:RNA)
# RNA: B1 RNA with A25G, G27U, A28C, U29A, U31C
# DNA 1: CAATCTGAATTCCGGTCTCCC
# DNA 2: TGGTGGCTACGACGGGATT
# B4: GCGGCGA (DNA:RNA)
# RNA: B1 RNA with A25G, G26C, A28G, U29C, U31A
# DNA 1: CAATCTGAATTCCGGTCTCCC
# DNA 2: TGGTGGCTACGACGGGATT
# B5: GGUGUCU (DNA:RNA)
# RNA: B1 RNA with A25G, G27U, A28G, G30C
# DNA 1: CAATCTGAATTCCGGTCTCCC
# DNA 2: TGGTGGCTACGACGGGATT
# B6: GCUACUC (DNA:RNA)
# RNA: B1 RNA with A25G, G26C, G27U, U29C, G30U, U31C
# DNA 1: CAATCTGAATTCCGGTCTCCC
# DNA 2: TGGTGGCTACGACGGGATT
# B7: AAUGUGC (DNA:RNA)
# RNA: B1 RNA with G26A, G27U, A28G, U31C
# DNA 1: CAATCTGAATTCCGGTCTCCC
# DNA 2: TGGTGGCTACGACGGGATT
# B8: AGAGCCG (DNA:RNA)
# RNA: B1 RNA with G27A, A28G, U29C, G30C, U31G
# DNA 1: CAATCTGAATTCCGGTCTCCC
# DNA 2: TGGTGGCTACGACGGGATT
# B9: UAUUUAG (DNA:RNA)
# RNA: B1 RNA with A25U, G26A, G27U, A28U, G30A, U31G
# DNA 1: CAATCTGAATTCCGGTCTCCC
# DNA 2: TGGTGGCTACGACGGGATT
# B10: AUAAGGU (DNA:RNA)
# RNA: B1 RNA with G26U, G27A, U29G
# DNA 1: CAATCTGAATTCCGGTCTCCC
# DNA 2: TGGTGGCTACGACGGGATT
# B11: GGCCGCU (DNA:RNA)
# RNA: B1 RNA with A25G, G27C, A28C, U29G, G30C
# DNA 1: CAATCTGAATTCCGGTCTCCC
# DNA 2: TGGTGGCTACGACGGGATT
# B12: GCGGGGG (DNA:RNA)
# RNA: B1 RNA with A25G, G26C, A28G, U29G, U31G
# DNA 1: CAATCTGAATTCCGGTCTCCC
# DNA 2: TGGTGGCTACGACGGGATT
# B13: ACAGGUG (DNA:RNA)
# RNA: B1 RNA with G26C, G27A, A28G, U29G, G30U, U31G
# DNA 1: CAATCTGAATTCCGGTCTCCC
# DNA 2: TGGTGGCTACGACGGGATT
# B14: UAGGCCA (DNA:RNA)
# RNA: B1 RNA with A25U, G26A, A28G, U29C, G30C, U31A
# DNA 1: CAATCTGAATTCCGGTCTCCC
# DNA 2: TGGTGGCTACGACGGGATT
# B15: CACGGCU (DNA:RNA)
# RNA: B1 RNA with A25C, G26A, G27C, A28G, U29G, G30C
# DNA 1: CAATCTGAATTCCGGTCTCCC
# DNA 2: TGGTGGCTACGACGGGATT
# B16: CUAGUGU (DNA:RNA)
# RNA: B1 RNA with A25C, G26U, G27A, A28G
# DNA 1: CAATCTGAATTCCGGTCTCCC
# DNA 2: TGGTGGCTACGACGGGATT
# B17: CGCUUAG (DNA:RNA)
# RNA: B1 RNA with A25C, G27C, A28U, G30A, U31G
# DNA 1: CAATCTGAATTCCGGTCTCCC
# DNA 2: TGGTGGCTACGACGGGATT
# B18: AGGGUCG (DNA:RNA)
# RNA: B1 RNA with A28G, G30C, U31G
# DNA 1: CAATCTGAATTCCGGTCTCCC
# DNA 2: TGGTGGCTACGACGGGATT
# B19: UUGAUCG (DNA:RNA)
# RNA: B1 RNA with A25U, G26U, G30C, U31G
# DNA 1: CAATCTGAATTCCGGTCTCCC
# DNA 2: TGGTGGCTACGACGGGATT
# B20: CAGCGCA (DNA:RNA)
# RNA: B1 RNA with A25C, G26A, A28C, U29G, G30C, U31A
# DNA 1: CAATCTGAATTCCGGTCTCCC
# DNA 2: TGGTGGCTACGACGGGATT
# B21: AAGAAGU (DNA:RNA)
# RNA: B1 RNA with G26A, U29A
# DNA 1: CAATCTGAATTCCGGTCTCCC
# DNA 2: TGGTGGCTACGACGGGATT
# B22: AAUAUGA (DNA:RNA)
# RNA: B1 RNA with G26A, G27U, U31A
# DNA 1: CAATCTGAATTCCGGTCTCCC
# DNA 2: TGGTGGCTACGACGGGATT
# B23: CUCUCUA (DNA:RNA)
# RNA: GGGAGACCGGAAUUCAGAUUGUCCCUCUCUAUUAAAUCCCGUCGUAGCCACCA
# DNA 1: CAATCTGAATTCCGGTCTCCC
# DNA 2: TGGTGGCTACGACGGGATT
# B24: GGCACUU (DNA:RNA)
# RNA: B1 RNA with A25G, G27C, U29C, G30U
# DNA 1: CAATCTGAATTCCGGTCTCCC
# DNA 2: TGGTGGCTACGACGGGATT
# B25: GAGCAUA (DNA:RNA)
# RNA: B23 RNA with C25G, U26A, C27G, U28C, C29A
# DNA 1: CAATCTGAATTCCGGTCTCCC
# DNA 2: TGGTGGCTACGACGGGATT
# B26: UAGGAUC (DNA:RNA)
# RNA: B1 RNA with A25U, G26A, A28G, U29A, G30U, U31C
# DNA 1: CAATCTGAATTCCGGTCTCCC
# DNA 2: TGGTGGCTACGACGGGATT
# B27: AGUCCAG (DNA:RNA)
# RNA: B1 RNA with G27U, A28C, U29C, G30A, U31G
# DNA 1: CAATCTGAATTCCGGTCTCCC
# DNA 2: TGGTGGCTACGACGGGATT
# B28: GAUAAGG (DNA:RNA)
# RNA: B1 RNA with A25G, G26A, G27U, U29A, U31G
# DNA 1: CAATCTGAATTCCGGTCTCCC
# DNA 2: TGGTGGCTACGACGGGATT
# B29: AGGACAC (DNA:RNA)
# RNA: B1 RNA with U29C, G30A, U31C
# DNA 1: CAATCTGAATTCCGGTCTCCC
# DNA 2: TGGTGGCTACGACGGGATT
# B30: AUCGUUU (DNA:RNA)
# RNA: B1 RNA with G26U, G27C, A28G, G30U
# DNA 1: CAATCTGAATTCCGGTCTCCC
# DNA 2: TGGTGGCTACGACGGGATT
# B31: GCACUCC (DNA:RNA)
# RNA: B1 RNA with A25G, G26C, G27A, A28C, G30C, U31C
# DNA 1: CAATCTGAATTCCGGTCTCCC
# DNA 2: TGGTGGCTACGACGGGATT
# Biological target: T1, RBFOX1 RRM
# Assay: EMSA; HiTS-Eq, 1 nM pool, 10 min; buffer printed only for the single-RNA assays: 10 mM Tris pH 7.5, 150 mM NaCl, 3.4 mM EDTA, 0.001% NP-40, 30 C
# Conditions: tags: His6 N-terminal (pET28a); label: 5' 32P
# How it was run: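 These values rest on relative association constants, computed from read-count changes of each RNA species versus the control reaction and normalised to the cognate motif. Reads came from free RNA recovered by 8% native PAGE after purified RbFox RRM (wild type or mutant) at increasing concentrations was equilibrated for 10 min in 50 µL with 1 nM of a 5′-radiolabelled pool with 7 randomized nucleotides and DNA-annealed flanks.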
row,Binder,binding signal
1,B1,0.0179 KA relative to UGCAUGU
2,B2,0.0167 KA relative to UGCAUGU
3,B3,0.0143 KA relative to UGCAUGU
4,B4,0.0227 KA relative to UGCAUGU
5,B5,0.0102 KA relative to UGCAUGU
6,B6,0.0175 KA relative to UGCAUGU
7,B7,0.0173 KA relative to UGCAUGU
8,B8,0.00628 KA relative to UGCAUGU
9,B9,0.0153 KA relative to UGCAUGU
10,B10,0.00979 KA relative to UGCAUGU
11,B11,0.0123 KA relative to UGCAUGU
12,B12,0.0269 KA relative to UGCAUGU
13,B13,0.00968 KA relative to UGCAUGU
14,B14,0.00813 KA relative to UGCAUGU
15,B15,0.00764 KA relative to UGCAUGU
16,B16,0.0159 KA relative to UGCAUGU

row,Binder,binding signal
1,B17,0.00951 KA relative to UGCAUGU
2,B18,0.0203 KA relative to UGCAUGU
3,B19,0.0284 KA relative to UGCAUGU
4,B20,0.00751 KA relative to UGCAUGU
5,B21,0.00241 KA relative to UGCAUGU
6,B22,0.00647 KA relative to UGCAUGU
7,B23,0.000969 KA relative to UGCAUGU
8,B24,0.00825 KA relative to UGCAUGU
9,B25,0.012 KA relative to UGCAUGU
10,B26,0.00767 KA relative to UGCAUGU
11,B27,0.00711 KA relative to UGCAUGU
12,B28,0.0074 KA relative to UGCAUGU
13,B29,0.0157 KA relative to UGCAUGU
14,B30,0.00427 KA relative to UGCAUGU
15,B31,0.00634 KA relative to UGCAUGU
